Consider 22 compounds from ChEMBL document CHEMBL5308541, “MAIP: An Open-Source Tool to Enrich High-Throughput Screening Output and Identify Novel, Druglike Molecules with Antimalarial Activity” (ACS Med Chem Lett, 2023).

The whole screen tested about 150,000 compounds, of which about 540 (0.36%) showed an effect of 50% or more. The list shows a part of the results.

This assay relates to Plasmodium falciparum. The assay is described as follows: Primary screen in NF54 nanoGlo assay, in single point, at 2uM, 72h; a lower Z score goes with more inhibition. In kind it is functional, Erythrocyte. The conditions noted are these: timepoint 72 hour.
Regarding `COc1cc(CCNC(=O)N2CCN(c3cccc4[nH]ccc34)CC2)ccn1`, the “% Inhibition” value was found to be 0% and the Z score is reported as -0.07.

Take `CC(C)(C)c1nc(CN2CCCN(c3nc(-c4ccncc4)nc4ccccc34)CC2)no1`: the “% Inhibition” value is 7% and the Z score is given as -1.43.

Regarding `CC1CN(CCN2CCN(CCN3CCOC(C)C3)C(C(=O)N(C)C)C2)CCO1` (centres undefined), the “% Inhibition” value is 0% and the Z score is reported as 0.09.

As for `N#Cc1ccccc1-c1ccc(-c2c(-c3ccccc3)ncn2CCO)o1`, the “% Inhibition” value is reported as 2% and the Z score is listed as -0.47.

As to `O=C1NCC(=O)N2C[C@H](Nc3ncnc4cc[nH]c34)C[C@@H]12`, the “% Inhibition” value is on record as -9% and the Z score is recorded as 1.44.

With `CCOc1ccc([C@@H]2C[C@H]2NC(=O)[C@@H](NC(C)=O)C(C)(C)C)cc1`, the “% Inhibition” value is on record as -6% and the Z score came out at 0.92.

On to `COCCn1ccc2c(OCC(=O)Nc3nc(-c4c[nH]c5ccc(OC)cc45)cs3)cccc21`, for which the “% Inhibition” value is recorded as 1% and the Z score is given as -0.14.

For the compound `Cc1oc2c(c1C(=O)N[C@@H](C)c1cn3ncsc3n1)C(=O)CCC2`, the “% Inhibition” value is given as -3% and the Z score was found to be 0.54.

Consider `O=C(CNC(=O)c1ncccc1C(=O)NCCc1cc2ccccc2[nH]1)NCCc1cc2ccccc2[nH]1`, for which the “% Inhibition” value was -7% and the Z score came out at 1.21.

Regarding `O=C(N[C@H]1CC[C@H](O)CC1)c1nnc2c(Br)cccn12`, the “% Inhibition” value was -9% and the Z score is reported as 1.39.

With `NC(=O)CCCNC(=O)N[C@H]1CCc2c(Cl)cccc21`, the “% Inhibition” value was -1% and the Z score amounted to 0.11.

For the compound `CC(C)N1CCC(N(C)C(=O)c2cnc3[nH]ccc3c2)CC1`, the “% Inhibition” value is recorded as -4% and the Z score came to 0.64.

On to `CN1CCN(C2COCC2Nc2nc(N(C)C)nc3c2CCCC3)CC1` (centres undefined), for which the “% Inhibition” value is listed as -8% and the Z score was found to be 1.32.

`COc1ccc(CN2CCc3[nH]c(-c4cccc(F)c4)nc3C2)cc1O`: the “% Inhibition” value is listed as -14% and the Z score is reported as 2.99.

Take `CCCNc1ncc(CN2CCCCOc3cc(ccc3OC)C3CC(CNC(=O)C2)C2CCCN32)cn1` (centres undefined): the “% Inhibition” value is given as -8% and the Z score is given as 1.46.

For the compound `O[C@@H](CNC1CCN(c2ccccn2)CC1)c1cccc(C(F)(F)F)c1`, the “% Inhibition” value was found to be 4% and the Z score is -0.66.

Take `OCCNc1cc([C@H]2C[C@@H](Nc3ccc4ccccc4n3)C2)ncn1`: the “% Inhibition” value was -4% and the Z score was determined as 0.75.

For the compound `CC(NCCCN1CCCC1)C1CCCCN1C(=O)OC(C)(C)C` (centres undefined), the “% Inhibition” value was -5% and the Z score came to 0.92.

Consider `NCCc1ccc(CNCC2(N3CCCCC3)CCCC2)cc1`, for which the “% Inhibition” value was determined as 8% and the Z score is listed as -1.3.

As to `Cc1ccn2ncc(C(=O)N(C)[C@H]3CCCCNC3=O)c2n1`, the “% Inhibition” value is reported as -5% and the Z score is reported as 0.95.

With `CCOc1ccc(CNCc2nc3cc(F)ccc3[nH]2)cc1CO`, the “% Inhibition” value is recorded as -5% and the Z score came to 0.74.

For `O=C(c1cccc(-c2nc3ccccc3n2CCO)c1)N1CCCNCC1`, the “% Inhibition” value is reported as 3% and the Z score is listed as -0.69.
